Assay results reported in PubChem BioAssay AID2546 (National Center for Advancing Translational Sciences (NCATS), 2010).
The campaign covered roughly 310,000 compounds. About 11,000 (3.5%) were called active. Inconclusive means that the source gave no clear call. Such entries were picked first, then a sample of the others. Calls follow the shape of the dose curve; as a rule, active = well fitted inhibition curve with a large enough effect; inconclusive = small, poorly fitted or top-dose-only effect, or effect the other way; inactive = flat fitted curve, though single readings scatter. Potencies of inconclusive entries are left out as doubtful fits.

test: VP16 counterscreen qHTS for inhibitors of ROR gamma transcriptional activity; conditions: Drosophila S2 Gal4-VP16 UAS-luciferase, luminescence, 20 h; activity, negative = inhibition: at 53.6 µM (top of the series);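 also: Gal4-VP16 expression switched on by copper sulfate through the metallothionein promoter; nearly all actives have a fitted effect of over 50% in size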
% is scaled to controls: 0 for no effect and ±100 for the full control effect; potency is read from the fitted curve at half-maximal effect; tags tell the direction and shape of the fitted curve.

| Compound | activity, negative = inhibition | Potency |
| --- | --- | --- |
| COC(Cc1ccccc1N1CCCC1=O)OC | inactive: 0.0865% | – |
| O=C(CSc1ccc(-c2cccc([N+](=O)[O-])c2)nn1)N1CCCCCC1 | – | inconclusive [activator, partial curve] |
| O=C(COC(=O)c1ccccc1NS(=O)(=O)c1cccs1)NC1CCCCC1 | – | inconclusive [inhibitor, full curve, poor fit] |
| Cc1ccc(S(=O)(=O)NCC(=O)N/N=C/c2ccc(Cl)cc2Cl)cc1 | – | inconclusive [inhibitor, single point] |
| COc1ccccc1NS(=O)(=O)c1ccc2oc(SCC(C)=O)nc2c1 | – | inconclusive [inhibitor, single point] |
| O=C(COc1ccc2c(-c3ccccc3)cc(=O)oc2c1)Nc1ccc(CCO)cc1 | – | inconclusive [inhibitor, single point] |
| COc1ccc(NS(=O)(=O)c2ccc(NC(=O)c3ccc(N(C)S(C)(=O)=O)cc3)cc2)c(OC)c1 | – | active: 11.2 µM |
| O=C(CCCN1C(=O)/C(=C\c2ccccc2)SC1=S)Nc1ccccc1O | – | inconclusive [inhibitor, partial curve] |
| O=c1c2c(nc3cc(-c4ccc(F)cc4)[nH]n13)CCCC2 | – | active: 11.2 µM |
| COc1ccc(CNC(=O)Nc2ccc(C)c(C)c2)cc1 | – | inconclusive [inhibitor, single point] |
| COc1cc(N=Nc2ccc3ccccc3c2)ccc1O | inactive: -28.9% | – |
| O=C(CSc1ccccn1)N/N=C/c1ccccc1[N+](=O)[O-] | – | inconclusive [activator, single point] |
| COc1ccc(N(C)S(=O)(=O)c2cccc(C(=O)OCC(=O)NCc3ccccc3OC)c2)cc1 | inactive: 1.74% | – |
| COc1c(Br)cc(/C=N/n2c(-c3ccccc3)n[nH]c2=S)c(O)c1Br | – | inconclusive [inhibitor, single point] |
| Cc1c(C)n(C(=O)CN2CCC(C)CC2)c2ccccc12 | – | inconclusive [inhibitor, single point] |
| COc1ccccc1/C=N/NC(=O)c1ccc(C)nc1 | inactive: -1.14% | – |
| Cc1cc(C(F)(F)F)nc(SCC(=O)c2cccc([N+](=O)[O-])c2)n1 | inactive: -9.85% | – |
| O=C(Cc1ccc(-n2c(=O)c3ccccc3n(Cc3ccccc3F)c2=O)cc1)NCC1CCCO1 (stereo not given) | inactive: -4.61% | – |
| Clc1ccc(/C=N/Nc2nc(Cl)nc3ccccc23)cc1 | – | inconclusive [inhibitor, single point] |
| Cc1cc(NC(=O)CCc2ccc(S(=O)(=O)N3CCOCC3)cc2)n(-c2ccccc2)n1 | – | inconclusive [inhibitor, single point] |
| Cc1ccc(S(=O)(=O)Nc2ccc(Br)cc2/C=N/n2cnnc2)cc1 | – | inconclusive [inhibitor, single point] |
| Brc1ccc(NC(c2ccccc2)c2ccncc2)cc1 (stereo not given) | inactive: -3.29% | – |
| Cc1cccc(OCC(=O)Nc2ccc3c(c2)OCCO3)c1 | inactive: 3.8% | – |
| CC1=NOC(=O)/C1=C\c1ccc(-c2cccc(Cl)c2)o1 | – | inconclusive [inhibitor, single point] |

| Compound | activity, negative = inhibition | Potency |
| --- | --- | --- |
| CC(NC(=S)Nc1ccccc1Cl)C(c1cccs1)N1CCCC1 (stereo not given) | – | inconclusive [inhibitor, single point] |
| Cc1nc2c(-c3ccccc3)c(C)nn2c(N)c1-c1ccccc1 | – | inconclusive [inhibitor, single point] |
| CCc1ccc(NC(=S)N2CCN(c3cccc(C(F)(F)F)c3)CC2)cc1 | – | active: 35.5 µM |
| O=c1[nH]c(-c2ccccn2)cc2ccccc12 | – | inconclusive [inhibitor, single point] |
| CCCc1nc2c(c(=O)c3ccccc3n2C)c(=O)n1C1CCCCCC1 | – | inconclusive [inhibitor, single point] |
| CCOc1ccccc1NC(=O)c1cc(=O)c2ccccc2o1 | inactive: -12.8% | – |
| Oc1ccccc1/C=N/NC(=S)NC1CC2CC1C1C=CCC21 (stereo not given) | – | active: 11.2 µM |
| Cc1nc(Nc2nc3ccccc3o2)nc(C)c1C | – | inconclusive [inhibitor, single point] |
| CC(=O)O/N=C/c1c(N2CCOCC2)n(C)c2ccccc12 | – | active: 11.2 µM |
| O=C(O)c1ccc(N/N=C/c2cccc(C(F)(F)F)c2)cc1 | – | inconclusive [inhibitor, full curve, poor fit] |
| CCOc1ccc(NC(=O)CCN2C(=S)NC(C)(C)CC2C)cc1 (stereo not given) | – | inconclusive [activator, single point] |
| COc1ccc(NC(=O)CC2C(=O)N(c3ccc(OC)cc3)C(=O)N2Cc2ccc(OC)c(OC)c2)cc1 (stereo not given) | inactive: 7.39% | – |
| CC(C)C[C@H](NC(=O)c1nc[nH]c1C(=O)NC(c1ccccc1)c1ccccc1)C(=O)OC(C)(C)C | – | active: 3.55 µM |
| O=C(CNC(=O)c1ccccc1)N/N=C/c1cn[nH]c1-c1ccccc1 | – | inconclusive [activator, single point] |
| Cc1cccc(NC(=S)N2CCC(C(=O)c3ccc(F)cc3)CC2)c1C | – | inconclusive [inhibitor, single point] |
| CCOC(=O)C1CSC(Cc2ccc(OCc3ccc([N+](=O)[O-])cc3)cc2)N1 (stereo not given) | – | inconclusive [inhibitor, partial curve, poor fit] |
| COc1ccc2c(c1)C(c1cccs1)=NNC(c1cccnc1)=N2 | – | inconclusive [inhibitor, single point] |
| CC(C)CCNC(=O)Cn1c(=O)oc2cc(S(=O)(=O)N3CC(C)CC(C)C3)ccc21 (stereo not given) | – | inconclusive [inhibitor, single point] |
| CC(C)C[C@H](NC(=O)c1nc[nH]c1C(=O)N[C@@H](CC(C)C)C(=O)OCc1ccccc1)C(=O)OCc1ccccc1 | – | inconclusive [inhibitor, single point] |
| N/C(=N\OC(=O)c1ccccc1Cl)c1ccncc1 | – | inconclusive [inhibitor, single point] |
| CC(=O)Nc1ccccc1OC(C)C(=O)NC(C)c1ccc(F)cc1 (stereo not given) | inactive: -0.902% | – |
| CCOC(=O)c1c(NC(=O)C(C)N2CCN(S(=O)(=O)c3cccs3)CC2)sc2c1CCC(C)C2 (stereo not given) | inactive: -0.526% | – |
| O=C(NCCc1ccccn1)c1ccc(OC(F)F)cc1 | – | inconclusive [inhibitor, single point] |
| CCCn1nnc(NC(=S)NC(=O)c2ccc(-c3ccc(Br)cc3)o2)n1 | – | active: 2.51 µM |

| Compound | activity, negative = inhibition | Potency |
| --- | --- | --- |
| CC(=O)Nc1ccc(S(=O)(=O)Nc2ccc3c(c2)C(=O)OC3)cc1 | – | active: 11.2 µM |
| CCCn1c(=O)c(C(=O)NNC(=O)c2ccccc2Cl)c(O)c2ccccc21 | – | inconclusive [inhibitor, single point] |
| O=C1c2ccc([N+](=O)[O-])cc2S(=O)(=O)N1Cc1ccccc1 | – | inconclusive [inhibitor, partial curve] |
| Cc1ccc(CNC(=O)c2ccc3nc4[nH]c5ccccc5c4nc3c2)cc1 | – | active: 7.08 µM |
| COc1ccc(/C=C2/SC(=S)N(CCCC(=O)Nc3cccc(O)c3)C2=O)cc1 | – | active: 2.51 µM |
| Cc1cc(NC(=O)CSc2nnc(-c3ccncc3)n2-c2ccccc2)no1 | inactive: -2.75% | – |
| CCC(=O)NC(=S)Nc1ccccc1OC | – | inconclusive [inhibitor, single point] |
| Cc1ccccc1Nc1nc(N)c2ccccc2n1 | – | inconclusive [inhibitor, partial curve, poor fit] |
| COc1cc(OC)cc(C(=O)Nc2ccccc2-c2nnn(CC(=O)Nc3cc(C)on3)n2)c1 | – | inconclusive [inhibitor, single point] |
| CCCCCCCC(=O)N/N=C/c1ccc([N+](=O)[O-])o1 | – | inconclusive [inhibitor, single point] |
| O=C(/C=C/c1ccc([N+](=O)[O-])s1)N1CCCCC1 | – | inconclusive [inhibitor, partial curve, poor fit] |
| Cc1cccc(NC(=O)CSc2nccn2Cc2ccco2)c1 | – | inconclusive [activator, single point] |
| CCOc1ccc(C(c2c(NC(=O)c3ccccc3)sc(C)c2C)N2CCN(C)CC2)cc1 (stereo not given) | – | inconclusive [inhibitor, single point] |
| O=C(NCc1ccncc1)c1nnc(Cc2c(F)cccc2Cl)o1 | – | inconclusive [inhibitor, single point] |
| CSc1ccccc1C(=O)Nc1nc2ccccc2[nH]1 | – | inconclusive [inhibitor, single point] |
| CCCCCCC(=O)N/N=C/c1ccc(Br)cc1 | – | inconclusive [inhibitor, single point] |
| COc1ccccc1NS(=O)(=O)c1cccc(C(=O)N/N=C/c2cn(-c3ccccc3)nc2-c2ccccc2)c1 | – | active: 6.31 µM |
| CCC(=O)C1CCCN(C(=O)CCc2nnc(-c3ccc(C(C)=O)s3)o2)C1 (stereo not given) | – | inconclusive [inhibitor, full curve, poor fit] |
| CCC(C)(C)c1ccc(OCCCC[n+]2cccc(C)c2)c(C(C)(C)CC)c1 | – | active: 12.6 µM |
| Cc1nc2ccc3nc(NC(=O)C4COc5ccccc5O4)sc3c2s1 (stereo not given) | – | inconclusive [inhibitor, single point] |
| COc1cc(C(=O)Nc2ccccc2N2CCCCC2)cc(OC)c1OC | inactive: -9.37% | – |
| S=C(NCCN1CCOCC1)Nc1ccc(Cl)c(Cl)c1 | – | inconclusive [inhibitor, single point] |
